54 sequences from publication PMC7819943, “Rice protein-binding microarrays: a tool to detect cis-acting elements near promoter regions in rice” can be followed below.

This is one part of the list.

In the assay the target is T1, OsWOX13 (Oryza sativa, UniProt Q5QMM3 1-267).
T1 sequence: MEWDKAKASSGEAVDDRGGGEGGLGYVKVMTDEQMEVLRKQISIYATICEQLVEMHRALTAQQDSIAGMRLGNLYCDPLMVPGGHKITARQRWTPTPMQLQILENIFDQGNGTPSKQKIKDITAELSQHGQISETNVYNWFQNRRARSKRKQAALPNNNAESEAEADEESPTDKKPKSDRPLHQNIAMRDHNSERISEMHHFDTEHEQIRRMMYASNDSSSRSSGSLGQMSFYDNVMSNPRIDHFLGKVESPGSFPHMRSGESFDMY
Kind of assay: protein-binding microarray (RPBM); PBS, 2% BSA, 51.3 ng/ul salmon testes DNA, 50 uM zinc acetate, 200 nM TF, 25 C, 1 h; high values mean tight binding. The conditions noted are these: protein: recombinant; tags: N-terminal polyhistidine and DsRed monomer fusion (pET32a); label: CyDye5-dUTP incorporated in the synthesized complementary strand; 3' TTTTT single-stranded linker to array surface; dsDNA, one strand shown. A digest of the protocol:
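Binding signal is defined as the fluorescence intensity of each feature in arbitrary units, read on an Axon 4000B scanner. Transcription factors with N-terminal polyhistidine and DsRed fusions came from E. coli BL21-CodonPlus and were purified on Ni–NTA. They were incubated at 200 nM for 1 h at 25 °C on a custom Agilent array that had been made double-stranded with Cy5-dUTP, with 50 µM zinc acetate present, and the array was washed.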
With “TTAAATTTATAGAAAATTTACCTCTGTTTTAAATTACAAGCGGAGTCACCTAGTGCAG”, the binding signal is 19300 fluorescence intensity (a.u.). Under “TTAGTTGTAATGAAACTAATTTGGTGTTTTAGAATTTAGACGGAGTCACCTAGTGCAG” stands 4720 fluorescence intensity (a.u.); under “TAAACAAATCAAAGCAATCAAACACACAAACGTAAGGGGTCGGAGTCACCTAGTGCAG”, 15600 fluorescence intensity (a.u.). Under “CTCATCCGAAATTCCTAATTGGCGACTGGTCGCGTGCCCCCGGAGTCACCTAGTGCAG” stands 7730 fluorescence intensity (a.u.); under “GTAAGATACTAATTGCGTTCAGACAAAACAGGACAGAAGTCGGAGTCACCTAGTGCAG”, 6300 fluorescence intensity (a.u.). For “ACATGATAGACTAATGAGTAGATTGTTGTCCTAATTAGCTCGGAGTCACCTAGTGCAG”, the binding signal was 54100 fluorescence intensity (a.u.). With “AGAAACTGATCGACTAACTAATGAAAGCACAATATCATCGCGGAGTCACCTAGTGCAG”, the binding signal was 5520 fluorescence intensity (a.u.). As for “ATTTAATGACCAACCATAATTGAACATCAAGATGGTGCCACGGAGTCACCTAGTGCAG”, the binding signal is 18600 fluorescence intensity (a.u.). Under “TTATTATTATTATTATGATTTATTGAATGAGCCAACAGCTCGGAGTCACCTAGTGCAG” stands 11800 fluorescence intensity (a.u.); under “CATGATTGTTGCCAAGACCCTAGGAGCAAGATCACCGAAGCGGAGTCACCTAGTGCAG”, 33900 fluorescence intensity (a.u.).

Turning to “GAGATCCACGGGGACTTGATTGATTTCTTTCCTCCATTTCCGGAGTCACCTAGTGCAG”, the binding signal is 9880 fluorescence intensity (a.u.). Regarding “ATGTTAATGAATCTAAACACATACATATGTCTAGATTCATCGGAGTCACCTAGTGCAG”, the binding signal was 3650 fluorescence intensity (a.u.). “TAGCTAATAATTAATTAATTACATGCTAATGGATTGCTCTCGGAGTCACCTAGTGCAG”: the binding signal was 39400 fluorescence intensity (a.u.). Under “AATGTAATGTAACAAATTTGTCTAAAAGGATTGAACTTGGCGGAGTCACCTAGTGCAG” stands 12400 fluorescence intensity (a.u.); under “CCTCTTAAACTGGTGGCCCACAATGGTATCTTCCCACACACGGAGTCACCTAGTGCAG”, 4220 fluorescence intensity (a.u.); under “ATGTTAGATTAAATAAAACTAATTTTATTATAAACAAACTCGGAGTCACCTAGTGCAG”, 10500 fluorescence intensity (a.u.). Take “TAGCTTAATTTGATTTCTATTTAAGACCTTGACATTAACGCGGAGTCACCTAGTGCAG”: the binding signal is 24400 fluorescence intensity (a.u.). As for “GCATAATCAGTATCCTAATCTACCTGCTCACATGAAAACACGGAGTCACCTAGTGCAG”, the figure is 6550 fluorescence intensity (a.u.). Consider “TTTCCAATCACGTATTCCGGACAAAGGCCTAAACCTGCTCCGGAGTCACCTAGTGCAG”, for which the binding signal was 30900 fluorescence intensity (a.u.). In the case of “TATGATGATGACATATGGTTGTATGGTCTTTGCTGTGACGCGGAGTCACCTAGTGCAG”, the binding signal is 12000 fluorescence intensity (a.u.). Under “TTACAAATTTGTGATTCATTGTTTGGATCTGTGATGTATTCGGAGTCACCTAGTGCAG” stands 3860 fluorescence intensity (a.u.); under “TTTAATTTAGGGATAATTTCTTAACTATGCGACAAGACAACGGAGTCACCTAGTGCAG”, 14000 fluorescence intensity (a.u.); under “ATTGATTATGCCATGATTGGATCTTGGCACAGTGCTCTGCCGGAGTCACCTAGTGCAG”, 60300 fluorescence intensity (a.u.). Consider “ACAAATTTGACGAGCGTGATGTACAAAATCTGCATAAGCACGGAGTCACCTAGTGCAG”, for which the binding signal was 42000 fluorescence intensity (a.u.).

Turning to “AATGATGAGTTGATGACACACTGATGAAGGAGCAAAGCAGCGGAGTCACCTAGTGCAG”, the binding signal was 17400 fluorescence intensity (a.u.). Regarding “ACATACAATTTGGACTTGATTTAGTCTTTTAATTTGTGACCGGAGTCACCTAGTGCAG”, the binding signal is 7100 fluorescence intensity (a.u.).

For “AAAGAATTAACGGCGGTGACGGGTTGGGTGCTTACCATGCCGGAGTCACCTAGTGCAG”, the binding signal was 4730 fluorescence intensity (a.u.). With “TTCTAAAATTTAAATTTTGACTTTTAAGTATAAGCGAAAACGGAGTCACCTAGTGCAG”, the binding signal is 7040 fluorescence intensity (a.u.).

Take “TACTGAGAAATTATTATAATTTCAATTCAATTGAGAGAAGCGGAGTCACCTAGTGCAG”: the binding signal was 11400 fluorescence intensity (a.u.). “TTGTCGATTCATAATTGACTAATTAAGCAAACGCATATCCCGGAGTCACCTAGTGCAG”: the binding signal is 17700 fluorescence intensity (a.u.). In the case of “CCTTTTAATTTTCTAGTAGTTTAAGGTGACGGATTAGCTGCGGAGTCACCTAGTGCAG”, the binding signal was 8150 fluorescence intensity (a.u.). Under “CTATTTAATTAGTTAATTAGGTGTCAATCTTAGGAGAAGTCGGAGTCACCTAGTGCAG” stands 44700 fluorescence intensity (a.u.); under “CAAATCATAACGCAATTAGGATTAAAAGATTCGTCTTGCACGGAGTCACCTAGTGCAG”, 8990 fluorescence intensity (a.u.). For the sequence “TAGGGATTTAAATTGTAAAACCTATAGTTTTGTGATGACTCGGAGTCACCTAGTGCAG”, the binding signal is 4740 fluorescence intensity (a.u.). Under “TAGTAAAATTAATTGCTAGAAAACACATAAAAGCTTAGTACGGAGTCACCTAGTGCAG” stands 23600 fluorescence intensity (a.u.); under “TAACCATACACTAATAATTATTTCATTTTGCTGCGGAGGGCGGAGTCACCTAGTGCAG”, 5110 fluorescence intensity (a.u.). Turning to “TCTCCTATTATTGATTTGTACATGCCCCTTAGCCTTTTCTCGGAGTCACCTAGTGCAG”, the binding signal was 25800 fluorescence intensity (a.u.). Consider “AGTATAATTAGCATACTATGATATCGATATACACGTTATGCGGAGTCACCTAGTGCAG”, for which the binding signal was 31400 fluorescence intensity (a.u.). Regarding “CAGAATGATTGTGCTTAATTGTAAAATTGATTTTAGGATTCGGAGTCACCTAGTGCAG”, the binding signal was 61100 fluorescence intensity (a.u.). On to “TTCAGTAAATTGACCCCGACGAATTCTCCATGTGTTGTGTCGGAGTCACCTAGTGCAG”, for which the binding signal is 27500 fluorescence intensity (a.u.). Turning to “GTTTATTTGGGCCTGATTGGCACAGATGGTAGTGCCATGTCGGAGTCACCTAGTGCAG”, the binding signal was 31700 fluorescence intensity (a.u.).

As to “TAATGCTTTAATTGACTAGAGTTCAGTCATGAGCAGTACTCGGAGTCACCTAGTGCAG”, the binding signal is 31700 fluorescence intensity (a.u.). On to “TCTAACTTTTCCATCACATCGTTCCAATTTCAACCAAACTCGGAGTCACCTAGTGCAG”, for which the binding signal is 5470 fluorescence intensity (a.u.). On to “GTCGAAAATTATATCGGAATTAGCAGAGTGTGGCATAGCACGGAGTCACCTAGTGCAG”, for which the binding signal was 4260 fluorescence intensity (a.u.).

For the sequence “ACACATAACTTTAATCTCATCGCATCAGGCAGAAACAAGCCGGAGTCACCTAGTGCAG”, the binding signal was 3560 fluorescence intensity (a.u.). As to “TTGTTAGATTGAAAATCTTGAATTAGGGGACTAATGTTCTCGGAGTCACCTAGTGCAG”, the binding signal was 27000 fluorescence intensity (a.u.). On to “ACATTGATTTCATGATACATTTGGGTTTAATATTGATAGGCGGAGTCACCTAGTGCAG”, for which the binding signal was 22100 fluorescence intensity (a.u.).

Regarding “TTTTATATTAATTTATGTGTGAGACTGACGTGTGGGTCCCCGGAGTCACCTAGTGCAG”, the binding signal is 15000 fluorescence intensity (a.u.). Under “ATTCAGCAATTATTTAAATATTAAATTAATCATTAAATGGCGGAGTCACCTAGTGCAG” stands 13600 fluorescence intensity (a.u.). As to “ACTTTAATTCTTTTCCATCACATCAACCTGTTATACACACCGGAGTCACCTAGTGCAG”, the binding signal is 4220 fluorescence intensity (a.u.).

Take “GTTTGTTGCAATCACGCCATCTTCACTTCTCCTCAAAGGGCGGAGTCACCTAGTGCAG”: the binding signal is 4210 fluorescence intensity (a.u.). “TTAATACTTTTAATTAGTGTCCAAACATTCGATGTGGCATCGGAGTCACCTAGTGCAG”: the binding signal is 4460 fluorescence intensity (a.u.).

For the sequence “TGTGTGATTGCAGAAAATATGATTTAGCTTATGTTATTCTCGGAGTCACCTAGTGCAG”, the binding signal was 25600 fluorescence intensity (a.u.). For “AAATTAAATAACATGTGATTATGGCATACTGTAAGTAGTACGGAGTCACCTAGTGCAG”, the binding signal was 12000 fluorescence intensity (a.u.).
